Here are results for four molecules from patent publication CN114984207A (ZHEJIANG TERUISI PHARMACEUTICAL INC, dated 2022).

A word on the Kd: it is the constant that tells how readily two partners part at equilibrium. One may read the koff as the rate constant with which the complex falls apart. Low readings indicate a long-lived complex, high ones a short-lived complex. For orientation: kon means a measure of how fast the partners come together. A higher kon goes with fast association. Broadly, the EC50 is the concentration needed to bring the measured effect to its halfway point.

The target in assay [1] is T1, PD-1蛋白 (冻干, fortebio assay) (UniProt Q15116 part only, limits assumed).
T1 construct: also called 抗原PD-1蛋白; 冻干PD-1蛋白
Briefly: BLI (Octet K2), antibody captured on Protein A sensor, PD-1 protein as analyte from 50 nM, 2-fold dilutions. Background: Biolayer interferometry detects binding as a change in optical thickness at a sensor tip.

The target in a further assay is T2, 人PD-1蛋白(Acro PD1-HB2F2) (human, UniProt Q15116 part only, limits assumed).
T2 construct: Bought protein coated on the ELISA plate; also called 抗原PD-1蛋白; human PD-1 protein
Description: ELISA, human PD-1 protein coated at 20 ng/mL, antibody titrated from 1000 ng/mL. A general note: ELISA stands for enzyme-linked immunosorbent assay.

人PD-1蛋白(Acro PD1-HB2F2), sequence (Q15116 25-167 limits assumed): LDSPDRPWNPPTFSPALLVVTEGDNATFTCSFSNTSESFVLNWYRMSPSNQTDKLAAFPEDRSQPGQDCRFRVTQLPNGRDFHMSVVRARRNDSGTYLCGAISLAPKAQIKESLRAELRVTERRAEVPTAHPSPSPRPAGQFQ

B1: PR (Fc fusion)
chain: QVQLQESGGGLVQPGGSLRLSCAASGSTYLRFSMGWFRQVPGKGLEGVAAIGGDGRTSYADSVKGRFTISKDNSKNTLYLDMNSLRAEDTAVYYCAAAVLLDGSFSLLAPLVPYKYDYWGQGTLVTVSS[omitted - human IgG4 Fc with S228P (EU numbers)]
notes: Expressed in CHO-S cells and purified on Protein A; also called 优化前序列PR; 对照抗体
Turning to B1, in assay [1], binding was characterised by a dissociation constant (Kd) of 4.72 nM, the dissociation rate constant (koff) was determined as 0.00113 s⁻¹ and the kon came to 239000 M⁻¹ s⁻¹. In the assay with 人PD-1蛋白(Acro PD1-HB2F2), this molecule yielded an EC50 of 0.0159 µg/mL.

B2: 抗PD-1纳米抗体 N15 (Fc fusion)
chain: QVQLQESGGGLVQPGGSLRLSCAASGSTYLRFSMGWFRQVPGKEREGVAAIGGDGRTSYADSVKGRFTISKDNSKNTLYLDMNSLRAEDTAVYYCAAAVLLDGSFSLLAPLVPYKYDYWGQGTLVTVSSEPKIPQPQPKPQPKPEPE[omitted - human IgG4 Fc with S228P (EU numbers)]
Regarding B2, in assay [1], the on-rate constant (kon) stood at 316000 M⁻¹ s⁻¹. This molecule also came in with an EC50 with 人PD-1蛋白(Acro PD1-HB2F2) of 0.0111 µg/mL.

B3: 抗PD-1纳米抗体 N14 (Fc fusion)
chain: QVQLQESGGGLVQPGGSLRLSCAASGSTYLRFSMGWFRQVPGKEREGVAAIGGDGRTSYADSVKGRFTISKDNSKNTLYLDMNSLRAEDTAVYYCAAAVLLDGSFSLLAPLVPYKYDYWGQGTLVTVSSEPKIPQPQPK[omitted - human IgG4 Fc with S228P (EU numbers)]
In assay [1], B3 displayed a kon of 249000 M⁻¹ s⁻¹. In the assay with 人PD-1蛋白(Acro PD1-HB2F2), this molecule displayed an EC50 of 0.0151 µg/mL.

B4: 抗PD-1纳米抗体 N10 (Fc fusion)
chain: QVQLQESGGGLVQPGGSLRLSCAASGSTYLRFSMGWFRQVPGKEREGVAAIGGDGRTSYADSVKGRFTISKDNSKNTLYLDMNSLRAEDTAVYYCAAAVLLDGSFSLLAPLVPYKYDYWGQGTLVTVSSEPKIPQPQPKPQPQPQPQPKPQPKPEPE[omitted - human IgG4 Fc with S228P (EU numbers)]
With B4, in assay [1], the on-rate constant (kon) was determined as 277000 M⁻¹ s⁻¹. In the assay with 人PD-1蛋白(Acro PD1-HB2F2), this molecule displayed an EC50 of 0.0149 µg/mL.
